Reference: PubChem BioAssay (EPA / NIEHS)
A structure can be active in one record and inactive in another. Rule for the calls: active = hit-call score of the fitted dose curve at least 0.9, where 1 is the maximum; inactive = score below 0.9. Certain results were filed several times, with different values. The list is limited to them. The source may hold further records. Results that share an entry are repeats across runs, samples, wells, individuals or studies.

Tests used:
[1] = ATG_EGR_CIS: Attagene CIS-FACTORIAL HepG2 Assay for human Early Growth Response 1 (EGR1) (AID 2282938); conditions: HepG2 Attagene CIS-FACTORIAL EGR reporter mRNA; actives raise or lower the signal
How it was run: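 HepG2 cells transiently transfected with cis-element-driven multiplexed reporter units, dosed for 24 h. EGR1-element reporter mRNA quantified by RT-PCR, 6-FAM labelling, HpaI digestion and capillary electrophoresis; bidirectional fit versus DMSO.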

[2] = target: Paired box protein Pax-6 (Homo sapiens) (UniProt P26367); assay: ATG_Pax6_CIS: Attagene CIS-FACTORIAL HepG2 Assay for human Paired Box 6 (PAX6) (AID 2282956); conditions: HepG2 CIS-FACTORIAL PAX6 reporter transcription, RNA readout; actives raise or lower the signal
UniProt P26367, sequence (P26367 whole entry, looked up): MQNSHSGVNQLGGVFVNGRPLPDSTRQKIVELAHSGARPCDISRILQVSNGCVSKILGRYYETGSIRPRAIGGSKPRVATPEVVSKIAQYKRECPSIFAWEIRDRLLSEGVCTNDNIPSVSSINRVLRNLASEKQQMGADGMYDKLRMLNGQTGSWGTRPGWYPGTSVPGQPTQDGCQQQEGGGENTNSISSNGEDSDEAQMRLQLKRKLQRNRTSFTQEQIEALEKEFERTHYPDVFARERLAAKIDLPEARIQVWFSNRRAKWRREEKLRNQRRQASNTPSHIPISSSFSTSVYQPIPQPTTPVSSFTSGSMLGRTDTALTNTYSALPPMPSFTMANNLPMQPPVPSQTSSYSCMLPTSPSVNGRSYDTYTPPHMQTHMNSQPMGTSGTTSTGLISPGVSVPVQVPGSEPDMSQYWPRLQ
How it was run: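 Transient MRTU transfection of HepG2 → compound exposure 24 h → TriZol RNA, oligo(dT) RT → PCR, 6-FAM primer extension, HpaI cut → capillary electrophoresis; activity fitted both directions against DMSO.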

[3] = ATG_SREBP_CIS: Attagene CIS-FACTORIAL HepG2 Assay for human Sterol Regulatory Element Binding (SREBP) (AID 2282962); conditions: HepG2 Attagene cis-factorial SREBP reporter, mRNA; actives raise or lower the signal
How it was run: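 Transfected HepG2 (cis-regulated reporter library, endogenous TFs) → compound 24 h → total RNA → oligo(dT) RT → reporter-specific PCR → FAM primer extension, HpaI cut → CE fluorescence. Fit bidirectional vs DMSO.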

Structure (SMILES): C#C[C@]1(O)CC[C@H]2[C@@H]3CCc4cc(O)ccc4[C@H]3CC[C@@]21C
- AC50 [1]: active: 30.1, 100, 27.1, 35.1 µM [separate samples]
- AC50 [2]: active: 32.3, 100, 27.4, 27.6 µM [separate samples]
- AC50 [3]: active: 43.3, 65.9, 9.14, 26.6 µM [separate samples]
